# In PubChem BioAssay AID540317 (National Center for Advancing Translational Sciences (NCATS), 2011):
# The campaign covered roughly 390,000 compounds. About 2,200 (0.56%) were called active. Inconclusive results, whose numbers are uncertain, are shown with a selection of clear calls. Calls come from the whole dose curve; as a rule, active = well fitted inhibition curve with a large enough effect; inconclusive = small, poorly fitted or top-dose-only effect; inactive = no such curve, though single readings can be large or run the other way. Potencies beside an inconclusive call are fits to weak or partial responses and may not hold up.
# Molecular target: Chromobox protein homolog 1 (Homo sapiens) (UniProt P83916)
# Test: HTS for Inhibitors of HP1-beta Chromodomain Interactions with Methylated Histone Tails; note: nearly all actives have a fitted effect of over 70% in size
# Conditions: AlphaScreen HP1-beta / biotin-H3K9me3 peptide binding; series mostly up to 114 µM
# Outline: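 Compound inhibition of the preformed complex between 50 nM HP1-beta and 50 nM biotinylated H3K9me3 peptide was read by AlphaScreen. Buffer was PBS pH 7.4 with 0.01% Tween-20. Incubations ran 30 min at room temperature, with 10 ug/mL donor/acceptor beads.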
# Potency is the fitted concentration of half-maximal effect; tags give direction and shape of the fitted curve.
# Chain of UniProt P83916 (P83916 whole entry, looked up): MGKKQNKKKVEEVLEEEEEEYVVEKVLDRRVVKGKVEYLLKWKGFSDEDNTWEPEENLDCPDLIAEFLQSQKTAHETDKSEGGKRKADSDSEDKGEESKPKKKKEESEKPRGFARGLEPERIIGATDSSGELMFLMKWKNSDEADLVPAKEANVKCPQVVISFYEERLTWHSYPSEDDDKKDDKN
row,SMILES,Potency
1,Cc1ccc(C)c(Nc2c([N+](=O)[O-])ccc3nonc23)c1,"inconclusive: 14.1 µM [inhibitor, partial curve]"
2,CC(=O)Nc1ccc(NC(=O)C(C)Sc2nc3nc(C)cc(C)n3n2)cc1 (stereo not drawn),inactive
3,Cc1cc(/C=N/n2cnnc2)c(C)n1-c1ccc(OCc2ccc(Cl)cc2)cc1,"inconclusive: 35.5 µM [inhibitor, full curve]"
4,CSCCC(NC(=O)c1ccccc1Br)C(=O)NNC(=O)c1cc(C)oc1C (stereo not drawn),inactive
5,Cc1cccnc1Nc1nc(-c2ccc(O)c(O)c2)cs1,"inconclusive: 44.7 µM [inhibitor, partial curve]"
6,COc1ccc(C(=O)c2c(N)sc3c2CCN(C)C3)cc1,inactive
7,CCOc1ccc(NS(=O)(=O)c2ccc3[nH]c4c(c3c2)CCCC4)cc1,"inconclusive: 31.6 µM [inhibitor, full curve]"
8,CCCCNC(C(=O)Nc1ccc([N+](=O)[O-])cc1Br)c1ccccc1 (stereo not drawn),"inconclusive: 17.8 µM [inhibitor, partial curve, poor fit]"
9,O=C(/C=C\c1ccc(-c2cccc([N+](=O)[O-])c2)o1)N1CCOCC1,inactive
10,Cc1c(C(=O)Oc2cccc3ccccc23)cnn1-c1ccccc1,inactive
11,Cn1cnc([N+](=O)[O-])c1Sc1ncn[nH]1,inactive
12,Cc1cc(C(=O)N/N=C/c2cc(Br)cc([N+](=O)[O-])c2O)c2ccccc2n1,"inconclusive: 17.8 µM [inhibitor, full curve, poor fit]"
13,Cc1ccc(-n2c(N)c(C(=O)Nc3ccccc3F)sc2=S)cc1C,"inconclusive: 20 µM [inhibitor, full curve]"
14,Cc1nc(NC(=O)Nc2ccc(Cl)cc2)sc1C,inactive
15,CC(C)(C)c1ccc(OCCCn2ccnc2)cc1,"inconclusive: 35.5 µM [inhibitor, partial curve]"
16,COc1cccc(-c2nnc3sc(-c4ccccn4)nn23)c1,"inconclusive: 39.8 µM [inhibitor, single point]"
17,O=C(COC(=O)CCOc1ccccc1)NCc1ccco1,"inconclusive: 89.1 µM [inhibitor, single point]"
18,Nc1ccc(C2(c3ccc(N)cc3)OC(=O)c3ccccc32)cc1,inactive
19,CCN1C(C(=O)c2ccccc2)=C(Nc2ccccc2C)c2ccccc2S1(=O)=O,"inconclusive: 14.1 µM [inhibitor, full curve]"
20,O=C(NCCNCc1ccc(F)cc1)c1ccco1,"inconclusive: 50.1 µM [inhibitor, partial curve]"
21,Cc1nc2cc(N)ccc2n1-c1ccccc1,"inconclusive: 31.6 µM [inhibitor, full curve]"
22,O=[N+]([O-])c1cc(-c2ccccc2)cc([N+](=O)[O-])c1O,"inconclusive: 22.4 µM [inhibitor, partial curve, poor fit]"
23,Oc1ccc2ccccc2c1C1Nc2cccc3cccc(c23)N1,"inconclusive: 63.1 µM [inhibitor, single point]"
24,O=S(=O)(NCc1ccc2c(c1)OCO2)c1cccc(S(=O)(=O)N2CCOCC2)c1,inactive
25,CCN(CC)c1ccc(C(=O)NNC(=O)CCl)cc1,inactive

row,SMILES,Potency
1,CCC(CC)N1CCN(CC2CC=CCC2)CC1 (stereo not drawn),"inconclusive: 15.8 µM [inhibitor, full curve, poor fit]"
2,O=C(CN1CCOCC1)Nc1cccc(C(=O)Nc2cccc(C(F)(F)F)c2)c1,inactive
3,CNC(=S)N1N=C(c2ccc(Br)cc2)CC1c1ccc(OC)cc1 (stereo not drawn),"inconclusive: 31.6 µM [inhibitor, single point]"
4,COc1ccccc1N(O)C1CC(=O)N(c2ccc(F)cc2)C1=O (stereo not drawn),inactive
5,Cc1nc([N+](=O)[O-])nn1C12CC3CC(CC(Br)(C3)C1)C2,"inconclusive: 10 µM [inhibitor, full curve]"
6,Cc1ccc(S(=O)(=O)NCC[C@@]2(C)C3CCC2(C)C(=O)C3)cc1 (stereo partly drawn),"inconclusive: 89.1 µM [inhibitor, single point]"
7,Cc1ccc(CNC(=O)c2ccc(N3CCc4ccccc43)c([N+](=O)[O-])c2)cc1,active: 31.6 µM
8,CC1CCCN(C(=O)C2CCN(S(=O)(=O)c3ccccc3)CC2)C1 (stereo not drawn),inactive
9,COCCCNC(=O)/C(C#N)=C/c1ccc(OCC(=O)O)c(OC)c1,"inconclusive: 39.8 µM [inhibitor, partial curve, poor fit]"
10,CC(C)CCOCC(O)CCC(=O)NNC(=S)Nc1ccccc1 (stereo not drawn),inactive
11,Cn1cc(/C=C2\SC(=O)NC2=S)c2ccccc21,"inconclusive: 8.91 µM [inhibitor, partial curve, poor fit]"
12,Cc1cccc(N2CCN(C(=O)CN3CCSc4ccccc43)CC2C)c1 (stereo not drawn),inactive
13,Cc1ccc(C(C(=O)NC2CCCC2)N(CCCO)C(=O)Cn2nnc(-c3ccc(C)o3)n2)cc1 (stereo not drawn),inactive
14,Cc1[nH]c2ccccc2c1C(=O)C(C)OC(=O)c1ccc(Cl)nc1 (stereo not drawn),inactive
15,Cc1cc2c(cc1C)N(C(=O)CN1C(=O)c3ccccc3C1=O)C(C)(C)c1ssc(=S)c1-2,"inconclusive: 8.91 µM [inhibitor, full curve]"
16,COc1cc(CN2CCN(Cc3c[nH]c4ccccc34)CC2CCO)cc(OC)c1 (stereo not drawn),inactive
17,O=C(O)c1ccccc1NS(=O)(=O)c1ccc(NN=Cc2ccccc2F)c([N+](=O)[O-])c1,active: 50.1 µM
18,CN(CC(=O)Nc1cccc(F)c1)CC(=O)Nc1ccccc1Oc1ccccc1,"inconclusive: 20 µM [inhibitor, full curve, poor fit]"
19,COc1ccc(OC)c(NS(=O)(=O)c2ccc(-c3coc(C)n3)cc2)c1,inactive
20,Cc1ccc(CSc2nc3c([nH]c4ccccc43)c(=O)n2C)cc1,inactive
21,CCCCN=c1scc(-c2ccc3c(c2)NC(=O)CO3)n1N=C1CCCC1,"inconclusive: 44.7 µM [inhibitor, partial curve]"
22,COc1ccc(CNC(=O)C(C)Sc2ccc(S(=O)(=O)N3CCOCC3)cn2)cc1 (stereo not drawn),inactive
23,COc1ccc(NC(=O)c2cccn2-c2nnc(N3CCCCC3)s2)cc1Cl,"inconclusive: 79.4 µM [inhibitor, single point]"
24,N#C/C(=C\C1=C(N2CCOCC2)C(=C\c2ccc(Cl)cc2)/CC1)C(=O)Nc1ccccc1F,"inconclusive: 22.4 µM [inhibitor, partial curve, poor fit]"
25,COc1ccc(OC)c(S(=O)(=O)NCc2cccn2Cc2cccc(C)c2)c1,inactive

row,SMILES,Potency
1,O=C(O)c1ccccc1NC(=S)NC(=O)c1sc2ccccc2c1Cl,inactive
2,Cc1ccc(C(=O)NCCNc2ncc(C(F)(F)F)cc2Cl)cc1[N+](=O)[O-],"inconclusive: 79.4 µM [inhibitor, partial curve, poor fit]"
3,Nc1c2c(nc3ccccc13)N(c1ccccc1)CC2,"inconclusive: 56.2 µM [inhibitor, partial curve, poor fit]"
4,CN1C(=O)/C(=C/C=C2\SCCN2C)N(C)C1=S,"inconclusive: 35.5 µM [inhibitor, partial curve]"
5,CC(=O)c1ccc(N2C(=O)N(Cc3ccccc3C#N)c3ccccc3S2(=O)=O)cc1,inactive
6,Cc1ccc(NC(=O)CN2C(=O)N/C(=C/c3cccn3-c3ccc(C(=O)O)cc3)C2=O)cc1,active: 2.82 µM
7,Cc1ccc2ccc(C)[n+](CCCS(=O)(=O)[O-])c2c1,"inconclusive: 39.8 µM [inhibitor, single point]"
8,CCOC(=O)c1cc(NC(=O)c2cccnc2)ccc1N1CCOCC1,"inconclusive: 89.1 µM [inhibitor, single point]"
9,Cc1nn(C)c2c1c(C(F)(F)F)cc(=O)n2CC(=O)N1CCCCC1C (stereo not drawn),inactive
10,COc1cc2[nH]c(=O)n(Cc3ccc(C(=O)N4CCN(c5cc(Cl)ccc5C)CC4)cc3)c(=O)c2cc1OC,inactive
11,O=C(COC(=O)c1ccc(S(=O)(=O)N2CCCCC2)cc1)NCc1ccco1,"inconclusive: 79.4 µM [inhibitor, single point]"
12,CCc1ccc(C(=O)NC(=S)Nc2ccc3c(c2)OCCO3)cc1,"inconclusive: 20 µM [inhibitor, full curve]"
13,CCN1CCN(C(=O)Nc2ccccc2OC)CC1,"inconclusive: 44.7 µM [inhibitor, partial curve]"
14,CC1CCN(C2CCN(C(=O)c3ccccc3F)CC2)CC1,"inconclusive: 56.2 µM [inhibitor, partial curve, poor fit]"
15,CCOc1ccc(CCNC(=O)CSc2n[nH]c(N)n2)cc1OCC,"inconclusive: 89.1 µM [inhibitor, single point]"
16,CCc1nnc(NS(=O)(=O)c2ccc(NC(=S)NC(=O)/C=C/c3ccc(OC)cc3)cc2)s1,"inconclusive: 56.2 µM [inhibitor, partial curve, poor fit]"
17,CN(C)S(=O)(=O)c1cccc(NC(=O)CNC2CCCCC2)c1,"inconclusive: 20 µM [inhibitor, full curve]"
18,O=C(NC1CCCCC1)c1cc([N+](=O)[O-])ccc1N1CCCCC1,"inconclusive: 56.2 µM [inhibitor, partial curve]"
19,Oc1ccc2ccccc2c1CNc1ccccc1,inactive
20,COc1ccc(S(=O)(=O)Cc2ccc(C(=O)N3CCOCC3)o2)cc1,inactive
21,CCOC(=O)N1CCN(CC(O)c2ccccc2)CC1 (stereo not drawn),"inconclusive: 20 µM [inhibitor, single point]"
22,Cn1c(=O)c2c(nc(NN=C3CCCCC3)n2C)n(C)c1=O,"inconclusive: 79.4 µM [inhibitor, single point]"
23,COCCNC(=S)Nc1ccc(N2CCCCC2)cc1,"inconclusive: 8.91 µM [inhibitor, full curve, poor fit]"
